# Reference: PubChem BioAssay AID463173 (ICCB-Longwood Screening Facility, Harvard Medical School, 2010)
# Out of some 52,000 compounds screened, about 4,300 (8.3%) were called active. Rule as the data show it: active = survival mostly below about 52% (no sharp cut-off); inactive = mostly above about 56%. Some of the results follow.
# Test system: DeltatarO mutant
# Assay: S. aureus survival, RN4220 and DeltatarO strains – OD600, teichoic acid synthesis inhibitors, primary screen (AID 463173)
# Settings: S. aureus RN4220 wild type/DeltatarO growth, OD600, 18 h, active compounds read low, screened at 18.75 µg/mL (by protocol)
row,Compound,survival
1,Fc1ccc(-c2ccc(NCc3ccccc3)nn2)cc1,inactive: 94%
2,CCc1ccc(NC(=O)Cn2cc(S(=O)(=O)N3CCCC3)c(S(=O)(=O)N3CCCC3)c2)cc1,inactive: 91%
3,O=C(Cn1cc(I)c(=O)[nH]c1=O)N1CCOCC1,inactive: 78%
4,CC(C)NC(=O)CCN1C(=O)c2ccccc2Sc2ncccc21,inactive: 72%
5,O=C(NC1CC(=O)N(c2ccc(F)cc2)C1)C1CC1 (stereo not given),inactive: 82%
6,Cc1ccc(NC(=O)Cn2nnc(C(=O)NCc3ccc4c(c3)OCO4)c2N)cc1Cl,inactive: 103%
7,CCCCOC(=O)c1ccc(NC(=O)c2cnc3ccc(C)cn3c2=O)cc1,inactive: 97%
8,CCN(c1cccc(C)c1)c1ncnc2c1cnn2-c1cccc(Cl)c1,inactive: 70%
9,CCn1c(=O)cc(OCC(=O)N2CCN(c3ccc(F)cc3)CC2)c2ccccc21,inactive: 80%
10,COc1ccc(CN2COc3ccc4c(-c5ccccc5)cc(=O)oc4c3C2)cc1OC,inactive: 55%
11,CCOc1ccc(C/C(N)=N\n2cnnc2)cc1,inactive: 94%
12,Cc1nn(C(=O)c2ccc(Br)cc2)c(C)c1Sc1ccccc1,active: 2%
13,Cn1c(=O)n(CCCc2ccccc2)c(=O)c2c1nc1n2CCN1c1ccc(F)cc1,inactive: 55%
14,CCOC(=O)c1cc2c(=O)n3ccccc3nc2n(Cc2ccco2)c1=NC(=O)c1ccc(OCC)cc1,active: 37%
15,O=C(c1cc(-c2ccc(O)cc2)on1)N1CCN(c2ccccc2)CC1,inactive: 96%
16,COc1ccc(Cl)cc1NC(=O)CSC1=Nc2ccccc2C2=NC(CC(=O)NCc3cccs3)C(=O)N12 (stereo not given),inactive: 75%
17,O=C(NCc1ccccc1)c1cnc(N2CCCCC2)c2ccccc12,inactive: 76%
18,CCOc1ccc2[nH]c3nc(SCC4CCCO4)nnc3c2c1 (stereo not given),inactive: 98%
19,COc1cccc(Nc2nc3ccc(C)cc3nc2-n2nc(C)cc2C)c1,inactive: 88%
20,COc1ccc(Nc2c(-c3ccccn3)nc3ccc(Cl)cn23)cc1,inactive: 93%
21,CCc1ccc(-n2c(=O)c3cccnc3n2CC(=O)NCc2ccc(C)cc2)cc1,inactive: 80%
22,Cc1ccc(NC(=O)C2=CC(c3ccc4c(c3)OCO4)=NS(=O)(=O)N2C)cc1,inactive: 75%
23,Cc1ccc(NC(=O)Cn2c(=O)n(Cc3nc(-c4ccccc4)no3)c(=O)c3cc4c(cc32)OCO4)c(C)c1,inactive: 62%

row,Compound,survival
1,c1ccc2c3c(cc(N4CCOCC4)c2c1)OC1(N2CCOCC2)CCCCC1O3 (stereo not given),inactive: 82%
2,Cc1nc(Nc2ccc(S(=O)(=O)N3CCCC3)cc2)c2nnn(Cc3ccccc3)c2n1,inactive: 96%
3,COc1ccccc1N1CCN(CC(O)COc2ccc(C)cc2C(C)(C)C)CC1 (stereo not given),active: 1%
4,CC1=C(C)CC2C(=O)N(Cc3ccccc3)C(=O)C2C1 (stereo not given),inactive: 95%
5,CCCCN(C)C(=O)Cn1c(SCC(=O)Nc2ccc(C)c(C)c2)nc2ccccc21,inactive: 55%
6,CCOC(=O)C1(C)C=C(Nc2ccc(C(=O)O)cc2)C(=O)N1c1ccc(C(=O)O)cc1 (stereo not given),inactive: 147%
7,Cc1nc2ccccc2n1CCc1nc2c3ccccc3nc(SCc3ccc(F)cc3)n2n1,inactive: 90%
8,Cc1cccc(Nc2c3c(nc4nncn24)CCC3)c1C,inactive: 82%
9,COc1ccc2c(c1)c1c(c(=O)n(-c3ccccc3C)c(=O)n1Cc1c(F)cccc1Cl)n2C,inactive: 82%
10,Cc1ccc(CCNC(=O)c2ccc(CS(=O)(=O)Cc3ccccc3F)o2)cc1,inactive: 72%
11,CCOc1ccccc1NC(=O)CN1C=NS(=O)(=O)c2ccccc21,inactive: 72%
12,Cc1ccc(NC(=O)CCNS(=O)(=O)c2ccc3c(c2)CCCC(=O)N3)cc1,inactive: 77%
13,COc1cccc2cc(-c3nc(-c4ccc(C)cc4)c(C)s3)c(=O)oc12,active: 46%
14,O=c1cc(CSc2nnc(Cn3nnc4ccccc43)o2)c2ccccc2[nH]1,inactive: 81%
15,Cc1ccc(C(=O)Nc2ccc3nc(N4CCCCC4)cc(C)c3c2)cc1F,inactive: 55%
16,CC(=O)c1ccc(N2C(=O)N(Cc3cc(C)ccc3C)c3ccccc3S2(=O)=O)cc1,inactive: 85%
17,O=S(=O)(Nc1ccc(Cl)cc1)c1cccc(S(=O)(=O)c2ccc(Cl)c(Cl)c2)c1,active: 37%
18,Cc1cc(Nc2ccc(F)cc2)nc(-n2nc(C)cc2C)n1,inactive: 70%
19,Cc1ccc(C)c(N2CCN(CCCNC(=O)Nc3ccc(Cl)cc3)CC2)c1,active: -5%
20,CCOC(=O)C1CCCN(C(=O)Cn2nc(CC)n3c(cc4occc43)c2=O)C1 (stereo not given),inactive: 88%
21,CCOC(=O)/C(C#N)=N\Nc1ccccc1OC,inactive: 64%
22,Cc1ccc(CCNC(=O)c2ccc(NC(=O)N3CCSc4ccccc43)cc2)cc1,inactive: 63%
23,COc1ccc(N2CCN(c3cc(C)nc4nncn34)CC2)cc1,inactive: 65%

row,Compound,survival
1,CCOc1ccc2c(c1)c(=O)c(C(=O)c1ccc(CC)cc1)cn2CC(=O)Nc1ccccc1C,inactive: 70%
2,Cc1ccc(C)c(N2CCN(c3nc4c(S(=O)(=O)c5ccccc5)nnn4c4ccc(Cl)cc34)CC2)c1,inactive: 105%
3,CCC(C)NC(=O)Cn1c(=O)ccc2cc(S(=O)(=O)N3CCCC3)ccc21 (stereo not given),active: 37%
4,CCCN(C(=O)c1cc2c(=O)oc3ccccc3c2s1)c1ccccc1C,inactive: 54%
5,Cc1ccc(NC(=O)Cn2nnc(C(=O)NCCc3ccccc3)c2N)cc1Cl,inactive: 105%
6,COCC(=O)N1c2nc(-c3ccco3)nn2C2(CCCCC2)[C@@H]2CCCC[C@@H]21,inactive: 58%
7,CCc1cccc(C)c1NC(=O)CCn1nc(C)c2c(C)n(-c3ccccc3)nc2c1=O,inactive: 69%
8,CC1=C(C(=O)Nc2cccc(C(F)(F)F)c2)C(c2ccccc2)n2ncnc2N1 (stereo not given),inactive: 103%
9,COc1ccc(NC(=O)Cc2noc3ccc(C)cc23)cc1Cl,active: 56%
10,O=C(c1ccc2c(Cl)c3c(nc2c1)CCCC3)N1CCN(c2ccccc2F)CC1,active: -3%
11,O=C(Nc1nnc(SCc2cc(=O)n3cc(Cl)ccc3n2)s1)c1cccc(F)c1,inactive: 83%
12,COc1cccc(C2=CC(c3ccccc3F)n3c(nc4ccccc43)N2)c1 (stereo not given),inactive: 83%
13,COc1ccc(N2CC(NC(=O)c3c(F)cccc3Cl)CC2=O)cc1OC (stereo not given),inactive: 95%
14,Cc1ccccc1NC(=O)c1cnc2sc(N3CCCC3)nn2c1=O,inactive: 95%
15,CCC(C(=O)N1CCN(c2ccccc2)CC1)n1nc(C)c2sc3ccccc3c2c1=O (stereo not given),inactive: 62%
16,CCOc1ccc(N2CC(c3nc4ccccc4n3CCOc3ccc(CC)cc3)CC2=O)cc1 (stereo not given),active: 55%
17,Cc1ccc(N2C(=O)SC(Nc3ccccc3)C2=O)cc1 (stereo not given),inactive: 83%
18,CCOc1cc(CNC(=O)c2ccc3nc(CCc4ccccc4)oc3c2)ccc1OC,inactive: 70%
19,O=C(CSc1nc2ccsc2c(=O)n1Cc1ccccc1Cl)NCc1ccc(Cl)cc1,inactive: 101%
20,O=C(CSc1nc2ccccc2n1Cc1c(F)cccc1Cl)N1CCN(c2ccc(F)cc2)CC1,inactive: 50%
21,COc1ccc(NC(=O)CN2C(=O)C3(SCC(=O)N3c3cccc(OC)c3)c3ccccc32)cc1 (stereo not given),inactive: 89%
22,Cc1ccc(CNC(=O)C(C)n2ccc3cc(S(=O)(=O)N4CCCC4)ccc32)cc1 (stereo not given),inactive: 102%
23,Cc1ccc2c(=O)c(C(=O)c3ccc(F)cc3)cn(CC(=O)NCCc3ccccc3)c2n1,inactive: 116%

row,Compound,survival
1,CCOc1ccc(C(=O)Nc2ccc3oc(-c4cccnc4)nc3c2)cc1,inactive: 77%
2,COc1ccc(CN(Cc2ccco2)c2cnc(S(C)(=O)=O)nc2C(=O)Nc2ccc(C)cc2C)cc1,inactive: 48%
3,Cc1c(C(=O)NCc2ccccc2Cl)sc2nc[nH]c(=O)c12,inactive: 89%
4,Cc1ccc(C)c(CN2C(=O)c3ccccc3S(=O)(=O)c3ccc(C(=O)NCc4ccccc4)cc32)c1,inactive: 75%
5,Cc1cccc(OCCCn2c(CCNC(=O)C(C)(C)C)nc3ccccc32)c1,inactive: 77%
6,CCCN1CCc2nc(N3CCN(c4ncccn4)CC3)ncc2C1,inactive: 75%
7,Cc1cccc(OCCSc2nc3ccc(NC(=O)COc4ccccc4)cc3s2)c1,inactive: 78%
8,CCn1cc2nc(SCc3cc(C)ccc3C)n(Cc3ccc(OC)cc3)c(=O)c2n1,inactive: 74%
9,CCc1ccc(N(C)S(=O)(=O)c2ccc3[nH]cc(C(=O)NCC4CCCO4)c(=O)c3c2)cc1 (stereo not given),inactive: 67%
10,N#Cc1ccccc1NC(=O)c1cnc(N2CCOCC2)c2ccccc12,inactive: 89%
11,CC(=O)N1CCOc2cc(S(=O)(=O)N(C)Cc3ccccc3)c(Cl)cc21,inactive: 89%
12,CCC(=O)N1CCc2cc(Br)cc(S(=O)(=O)CCC(=O)NCc3ccc(F)cc3)c21,inactive: 80%
13,COc1ccccc1-c1nnc(C2CCN(C(=O)c3ccc(Cl)cc3)CC2)o1,inactive: 80%
14,COc1cccc2c1Oc1ncccc1N(C(=O)CCC(=O)NCc1ccc(C)cc1)C2,inactive: 81%
15,Cc1csc2nc(COC(=O)CNC(=O)c3ccccc3Cl)cc(=O)n12,inactive: 95%
16,COC(=O)CCCCC1SCC(NC(=O)c2ccccc2)C1OC(C)=O (stereo not given),inactive: 95%
17,O=C(Nc1c(C(=O)N2CCN(c3ccccc3F)CC2)oc2ccccc12)c1ccccc1F,inactive: 75%
18,Cc1ccc(-n2nc3c(=O)n(CCCC(=O)NCc4ccccc4F)nc(C)c3c2C)cc1,inactive: 67%
19,CN1CCN(CCCNC(=O)c2ccc3nc(Cc4ccccc4)oc3c2)CC1,inactive: 91%
20,O=C(CN1CCCN(Cc2ccc(F)cc2)S1(=O)=O)NCc1ccccc1Cl,inactive: 88%
21,CCn1cc(C(=O)NCc2ccc(C)cc2)c(=O)c2cc(S(=O)(=O)N3CCc4ccccc4C3)ccc21,inactive: 67%
